Experimental findings from the supplement of paper PMC3694890 are described below.

± gives the uncertainty stated by the source. Some of the results follow. A small y stands for phosphotyrosine.
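Further: phosphopeptide probes on the chip at 1–4 µM, lysate proteins bound in 20 mM Tris pH 7.0 buffer with 140 mM NaCl, 1% Triton X-100 and 5% glycerol.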

One experiment concerns the target GRB2 (endogenous complexes from cell lysate), P62993. Nature of the experiment: GRB2 complex binding differential signal (pY peptide minus Ala control peptide) (fluorescence intensity units); higher = stronger GRB2 complex binding. The settings on record: MCF7. The procedure:
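In situ synthesized µParaflo PepArray of 6-mer peptides, each starting with an N-terminal phosphotyrosine (lowercase 'y' = pY) followed by 5 native residues. Peptides are tethered to glass through a long linker. Chips were incubated overnight at 4°C with total cell lysate (1 mg in 1 mL) from MCF10A, MCF7, T47D or MDA-MB-231 cells. Bound endogenous GRB2-containing complexes were detected with rabbit anti-GRB2 and an Alexa647 secondary antibody. Signals are background-subtracted and averaged over replicate spots, then the matched Ala-substituted control peptide signal is subtracted (differential signal).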
For yGVSPI [ABL2_272/A1], the “GRB2 complex binding differential signal” value stood at 1850 ± 1100.
Consider yTEHFM [EPHA2_921/A1], for which the “GRB2 complex binding differential signal” value was 34.7 ± 260.
As for yEDPAQ [EPHA1_605/A1], the “GRB2 complex binding differential signal” value is 5680 ± 1200.
Still for that read-out and setting: with yKDNFT [EPHA4_928/A1] the figure was 2060 ± 600.
Regarding yRDSFL [EPHB1_928/A1], the “GRB2 complex binding differential signal” value turned out to be 482 ± 230.
On to yIDPHT [EPHA5_650/A1], for which the “GRB2 complex binding differential signal” value turned out to be 11500 ± 3700.
Turning to yIDPFT [EPHB1_594/A1], the “GRB2 complex binding differential signal” value was 363 ± 460.
On the same count and under the same terms, with yVDLQA [EPHA1_599/A1] the figure was 995 ± 380; with yKGMLK [EPHA2_628/A1], 450 ± 370.
As to yIDPET [EPHA7_608/A1], the “GRB2 complex binding differential signal” value was found to be 3880 ± 790.
Same read-out and setting: with yTTRGG [EPHA3_779/A1] the figure was 4220 ± 780; with yWNMTN [EPHA8_839/A1], 6270 ± 1800; with yEDPTQ [EPHA3_602/A1], 7380 ± 2600.
The same measure, in the same setting: the figure for yTSSLG [EPHB1_778/A1] is 1320 ± 430; for yTTTGG [EPHA7_791/A1] it is 1910 ± 1500.
The same measure, in the same setting: with yETQGG [EPHA1_781/A1] the figure was 1750 ± 630.

Still in this experiment, the particulars now being: MCF10A.
As for yGVSPI [ABL2_272/A1], the “GRB2 complex binding differential signal” value stood at 2050 ± 630.
The same measure, in the same setting: the figure for yTEHFM [EPHA2_921/A1] is 239 ± 210; for yEDPAQ [EPHA1_605/A1] it is 2590 ± 540; for yKDNFT [EPHA4_928/A1] it is 1650 ± 540.
On the same count and under the same terms, with yRDSFL [EPHB1_928/A1] the figure was 243 ± 150.
Regarding yIDPHT [EPHA5_650/A1], the “GRB2 complex binding differential signal” value stood at 6130 ± 1700.
Still for that read-out and setting: the figure for yIDPFT [EPHB1_594/A1] is 375 ± 440; for yVDLQA [EPHA1_599/A1] it is 414 ± 310; for yKGMLK [EPHA2_628/A1] it is 400 ± 200.
Same read-out and setting: the figure for yIDPET [EPHA7_608/A1] is 2280 ± 530.
On the same count and under the same terms, the figure for yTTRGG [EPHA3_779/A1] is 1540 ± 460; for yWNMTN [EPHA8_839/A1] it is 5510 ± 1600.
For the molecule yEDPTQ [EPHA3_602/A1], the “GRB2 complex binding differential signal” value turned out to be 3700 ± 580.
The same measure, in the same setting: the figure for yTSSLG [EPHB1_778/A1] is 860 ± 350; for yTTTGG [EPHA7_791/A1] it is 4140 ± 740.
Still for that read-out and setting: with yETQGG [EPHA1_781/A1] the figure was 1350 ± 340.

Staying with this experiment, now noted: MDA-MB-231.
Consider yGVSPI [ABL2_272/A1], for which the “GRB2 complex binding differential signal” value was 605 ± 380.
On to yTEHFM [EPHA2_921/A1], for which the “GRB2 complex binding differential signal” value was determined as 389 ± 280.
The same measure, in the same setting: with yEDPAQ [EPHA1_605/A1] the figure was 3090 ± 660; with yKDNFT [EPHA4_928/A1], 781 ± 470; with yRDSFL [EPHB1_928/A1], 815 ± 420.
On the same count and under the same terms, the figure for yIDPHT [EPHA5_650/A1] is 2710 ± 440; for yIDPFT [EPHB1_594/A1] it is 1630 ± 580; for yVDLQA [EPHA1_599/A1] it is 1050 ± 800.
Same read-out and setting: the figure for yKGMLK [EPHA2_628/A1] is 575 ± 310.
Regarding yIDPET [EPHA7_608/A1], the “GRB2 complex binding differential signal” value is 1920 ± 540.
The same measure, in the same setting: with yTTRGG [EPHA3_779/A1] the figure was 700 ± 360; with yWNMTN [EPHA8_839/A1], 2140 ± 390; with yEDPTQ [EPHA3_602/A1], 3980 ± 510.
As to yTSSLG [EPHB1_778/A1], the “GRB2 complex binding differential signal” value worked out at 1560 ± 370.
The same measure, in the same setting: the figure for yTTTGG [EPHA7_791/A1] is 1750 ± 630.
Still for that read-out and setting: the figure for yETQGG [EPHA1_781/A1] is 1100 ± 540.

The experiment is the same for the next values; noted with them: T47D.
On to yGVSPI [ABL2_272/A1], for which the “GRB2 complex binding differential signal” value was found to be 1670 ± 1100.
Same read-out and setting: with yTEHFM [EPHA2_921/A1] the figure was 268 ± 1000; with yEDPAQ [EPHA1_605/A1], 2270 ± 1400.
As for yKDNFT [EPHA4_928/A1], the “GRB2 complex binding differential signal” value amounted to 259 ± 1700.
As to yRDSFL [EPHB1_928/A1], the “GRB2 complex binding differential signal” value stood at 337 ± 910.
On the same count and under the same terms, with yIDPHT [EPHA5_650/A1] the figure was 1880 ± 1000.
For the molecule yIDPFT [EPHB1_594/A1], the “GRB2 complex binding differential signal” value came to 1660 ± 1100.
On the same count and under the same terms, with yVDLQA [EPHA1_599/A1] the figure was 1950 ± 1100; with yKGMLK [EPHA2_628/A1], 1060 ± 1400.
In the case of yIDPET [EPHA7_608/A1], the “GRB2 complex binding differential signal” value came to 840 ± 1000.
Consider yTTRGG [EPHA3_779/A1], for which the “GRB2 complex binding differential signal” value came to 1570 ± 1200.
On to yWNMTN [EPHA8_839/A1], for which the “GRB2 complex binding differential signal” value was found to be 7260 ± 3600.
The same measure, in the same setting: the figure for yEDPTQ [EPHA3_602/A1] is 2410 ± 1600; for yTSSLG [EPHB1_778/A1] it is 1600 ± 1100; for yTTTGG [EPHA7_791/A1] it is 1850 ± 900.
On the same count and under the same terms, the figure for yETQGG [EPHA1_781/A1] is 940 ± 1200.
